Data published in US20210300981A1, “COMPOSITIONS AND METHODS FOR COMBATING MULTIDRUG-RESISTANT BACTERIA” (University of Virginia Patent Foundation, priority 2018, published 2021).

Tested on: CRE K. pneumoniae
Format: cell-based, Klebsiella pneumoniae
Conditions: 50 μM, RPMI/HEPES, 2.5×10^5 cfu/ml

With “L8-GGG-L8-GGG-L8: three copies of Peptide L8 head-to-tail with a tri-glycine linker between each (RTVRCTCIGGGRTVRCTCIGGGRTVRCTCI; Artificially synthesized antibacterial peptide or conjugate)” the “bactericidal activity versus negative control Peptide P5” value was “killed CRE K. pneumoniae statistically significantly more effectively than Peptide P5”.
